The source of these data is the RNAGym collection of RNA variant scans (doi:10.7554/elife.90254).

Read counts are not given, so values of variants with three or more changes are uncertain.

First the molecules themselves.
B1: LINE1-mini (parent)
chain: GGCAGAGCUCAACACAGCGUGGCAAAGUGGCUGUGGCUAGACUGCC

This series covers variants of B1. Briefly: self-cleavage, relative activity (ratio to wild type); higher = more cleavage; in vitro, sequencing; the parent is a self-cleaving ribozyme.
G5A C15A G30A C42A: the self-cleavage was determined as 0.03.

In the case of G5A A24U U28A, the self-cleavage came out at 0.03.

For G5A U9A C15U C42A, the self-cleavage worked out at 0.63.

Consider A4U G7U G22A, for which the self-cleavage was found to be 0.13.

For the variant A4U G5C A25G G30A G36A, the self-cleavage amounted to 0.05.

For G5A C31A G35A C37A, the self-cleavage is 0.12.

Regarding A4U G7U A25G A26C, the self-cleavage stood at 0.17.

For the variant G5A G21C C46A, the self-cleavage came to 0.19.

Take G5C A26U C46U: the self-cleavage was found to be 0.03.

Consider A4U G19A U20G G30A A41C, for which the self-cleavage was determined as 0.02.

Take G5A C13A G21C G35C C45A: the self-cleavage was found to be 0.36.

Turning to G5A A12C U43C, the self-cleavage is 0.04.

As to A4U G17A U20G U32G, the self-cleavage is 0.06.

For the variant G5A U9A A11U A25C G30U, the self-cleavage is 0.03.

On to G5A G29U G40A C46U, for which the self-cleavage is 0.04.

With G5A C18G G22U, the self-cleavage came to 0.07.

As to A4U G35U C42A, the self-cleavage was determined as 0.18.

For G5A C10A A11G C15G A25G, the self-cleavage turned out to be 0.01.

For G5A U9G U20C G27C A39U, the self-cleavage stood at 0.08.

Turning to G5C A26C G35A C37G, the self-cleavage came to 0.09.

As for G5A G21U A39G C46G, the self-cleavage came out at 0.05.

On to G5C A11G C37U C42U, for which the self-cleavage is 0.

With G5A C8A U9G G19C C23U G36U C45G, the self-cleavage is 0.33.

Consider A4U G19A A39G, for which the self-cleavage came out at 0.14.

Turning to G5A G7U C8U U34G, the self-cleavage was found to be 0.87.

As to A4U C18G U20G A25G, the self-cleavage is 0.11.

Consider G5A C8U C18A A26C U28C C31G, for which the self-cleavage turned out to be 0.01.

Take G5A A26C G30A C37U G40C G44A: the self-cleavage was found to be 0.07.

As for G5A C18G U34C G40U U43A, the self-cleavage stood at 0.01.

G5A G35C C37A C42A C45A: the self-cleavage is 0.16.

A4U U28G C42A: the self-cleavage came out at 0.05.

Consider G5C A11U A12U A16G C37G, for which the self-cleavage turned out to be 0.01.

For the variant G5C A14G U38C, the self-cleavage was 0.03.

On to G5A A11U C13G, for which the self-cleavage was 0.01.

On to G5A C8A U9G U34A C37G, for which the self-cleavage is 0.68.

As to A4U C31U C45U, the self-cleavage came out at 0.03.

With A4U C31U C45A, the self-cleavage was 0.01.

G5A C18A G19U G22A C45A: the self-cleavage came out at 0.16.

For the variant G5A A14U C23U U32G U34C, the self-cleavage amounted to 0.7.

Take G5A C23A G44U: the self-cleavage is 0.04.

Consider G5A C31A G44A, for which the self-cleavage turned out to be 0.03.

For the variant G5A C10A U43C, the self-cleavage turned out to be 0.01.

Regarding A4U G7C G19C, the self-cleavage was 0.03.

Regarding A4U G5A C18U C23U G33A C45U, the self-cleavage was 0.06.

For G5C A26C U38G, the self-cleavage was 0.

G5A A26U U28A: the self-cleavage is 0.02.

With A4U C23U C31U, the self-cleavage turned out to be 0.14.

With G5A U9A U34C, the self-cleavage came out at 0.3.

Regarding A4U G17U U28A, the self-cleavage was found to be 0.07.

With A4U G27A G29A A39C, the self-cleavage was determined as 0.02.

As for A4U G17U A26U U43G, the self-cleavage is 0.03.

As to G5A U20A G40A, the self-cleavage is 0.02.

For the variant G5A C10A A12G G29U, the self-cleavage was 0.01.

Consider G5C A6U G7U U34C, for which the self-cleavage was found to be 0.02.

Consider G5A G22A G40A, for which the self-cleavage was found to be 0.1.

Consider G5C A14C C18U G19U, for which the self-cleavage is 0.12.

With G5A C10G U38C, the self-cleavage worked out at 0.01.

In the case of G5A A16U C45G, the self-cleavage is 0.04.

G5A A12U G35A C42A: the self-cleavage worked out at 0.09.

With A4U G33A C37G, the self-cleavage is 0.06.

As for G5A G17C G33A, the self-cleavage was found to be 0.03.

On to G5A C8U A14U C42G, for which the self-cleavage was determined as 0.33.

As to G5A G7C G17A U32A A39G C46G, the self-cleavage stood at 0.04.

In the case of G5C A41G G44A, the self-cleavage was determined as 0.04.

Regarding G5A G17C G35U, the self-cleavage was determined as 0.03.

For A4U U9A A25C C46U, the self-cleavage is 0.18.

With G5C A14U G21C, the self-cleavage amounted to 0.04.

On to G5A G21U A24U A26G C46U, for which the self-cleavage is 0.03.

As to G5A A11C A16C C18A C37A, the self-cleavage was found to be 0.

With G5A G21U C46G, the self-cleavage was found to be 0.18.

Regarding G5A C23A G35U, the self-cleavage was 0.17.

G5A U9G A39G: the self-cleavage amounted to 0.18.

As to G5A A24U U34A U38G, the self-cleavage was 0.04.

Take G5A G21U C42G: the self-cleavage was determined as 0.22.

Regarding G5A U9A A11C A16C C31U U34C, the self-cleavage was 0.01.

For the variant A4U C18G G22C G35U, the self-cleavage was found to be 0.04.

On to A4U C37G U38G, for which the self-cleavage was found to be 0.03.

Consider G5C A26U G35A, for which the self-cleavage was found to be 0.08.

Turning to G5A U9G G21C, the self-cleavage is 0.05.

Consider G5A G19A G35U G36C, for which the self-cleavage was determined as 0.07.

In the case of G5A C10G A16U G27A G36U G40A U43G, the self-cleavage was 0.01.

With G5A C8G C13G G17A G22U G30U, the self-cleavage is 0.01.

As to A4U G17C G40C, the self-cleavage came to 0.07.

For G5C A16C C23U G30U, the self-cleavage stood at 0.04.

In the case of G5A C18A G19A, the self-cleavage turned out to be 0.1.

Regarding A4U U43C C45G, the self-cleavage was found to be 0.02.

As to A4U C23U G35U, the self-cleavage worked out at 0.17.

For G5A C8A A16U C18U C42U, the self-cleavage worked out at 0.21.

On to G5A G35C G44C, for which the self-cleavage was 0.04.

For G5A C23A G36C, the self-cleavage was found to be 0.21.

A4U G7U G22C A26C: the self-cleavage came out at 0.67.

Turning to A4U G5U A12G A24U G40U C42A, the self-cleavage was 0.03.

As to A4U U9G C15U A41C, the self-cleavage worked out at 0.09.

As to G5A A12C A16G G17U C18U, the self-cleavage was 0.02.

On to A4U U20C C42G, for which the self-cleavage came out at 0.06.

Take G5A C8A A12C: the self-cleavage came to 0.15.

As to G5A G7U G33U, the self-cleavage amounted to 0.15.

As for G5C A12G G33A, the self-cleavage was 0.04.

With A4U G27U C31A G33A C37U, the self-cleavage was found to be 0.03.

As for G5A C10U C31U U32G G35U, the self-cleavage came out at 0.19.

Regarding G5C A26C G36U, the self-cleavage came to 0.02.

For the variant G5A C10U C13G G17C A25G, the self-cleavage worked out at 0.05.

G5A C13A G35A C42U G44U: the self-cleavage turned out to be 0.4.

In the case of G5C A16G A25G G33A U43G, the self-cleavage came to 0.

Take G5A G30U G35A: the self-cleavage was found to be 0.09.

Regarding G5A C15G A41U, the self-cleavage was determined as 0.07.

For the variant G5A U20A C31A, the self-cleavage is 0.01.

With G5A G27A U28G, the self-cleavage is 0.3.

Regarding A4U U9C C10U A24G G33U, the self-cleavage turned out to be 0.01.

As to A4U U28G G33A, the self-cleavage was found to be 0.07.

G5A G22U C23G C46A: the self-cleavage was 0.05.

Consider A4U U32A G33C U43C, for which the self-cleavage was 0.02.

As for G5C A11G A14U G21C A25C G40U, the self-cleavage stood at 0.

For the variant A4U G19U U32G G33A C37A G44U, the self-cleavage was determined as 0.02.

As to G5A C10U G29C G30A, the self-cleavage turned out to be 0.04.

For the variant G5A C15U A16C G27U, the self-cleavage came to 0.07.

For G5A A6U C8U A16C U43C, the self-cleavage was 0.07.

For the variant G5C A16G C37U A39G, the self-cleavage turned out to be 0.

In the case of G5A A14G U32G C42A, the self-cleavage is 0.03.

Consider G5A C18U C23U, for which the self-cleavage was 0.12.

For the variant G5A C31G U32G, the self-cleavage worked out at 0.09.

For A4U G27A C37U, the self-cleavage worked out at 0.01.

For G5C A16U C45G, the self-cleavage was found to be 0.02.

Turning to A4U G5U U9A G22A, the self-cleavage was 0.25.

For G5A G7C G33U, the self-cleavage was 0.1.

On to A4U G7U U43A, for which the self-cleavage stood at 0.12.

G5A A6U C8A A14C G30U A39G: the self-cleavage came out at 0.11.

As to G5A G29U G44U C46A, the self-cleavage came out at 0.09.

G5C A16C U38A: the self-cleavage turned out to be 0.08.

Turning to G5A A6G C31A, the self-cleavage is 0.06.

Consider G5A G17C A26U U28G, for which the self-cleavage was found to be 0.06.

Consider G5C A16U A26U, for which the self-cleavage came out at 0.03.

Turning to G5C A6C G33A, the self-cleavage stood at 0.11.

As to G5A U20C G21A C23U G33C G44U, the self-cleavage was determined as 0.04.

Take G5A A6U C15A G21C: the self-cleavage was 0.07.

As for G5A C18A G22A C23U A24G U43G, the self-cleavage turned out to be 0.03.

For G5A C31U C42A, the self-cleavage is 0.04.

For the variant A4U U20G G27C G30A G40U, the self-cleavage was 0.01.

A4U G7C G22A U43G: the self-cleavage turned out to be 0.07.

Regarding A4U U9G C42G, the self-cleavage was determined as 0.05.

As to G5A A6G G22A, the self-cleavage came out at 0.05.

With G5A G17A G33A, the self-cleavage turned out to be 0.07.

As to G5C A12C U28C U32G, the self-cleavage stood at 0.01.

As for G5C A6G C23A A25C G33C G36A, the self-cleavage worked out at 0.06.

With G5C A14U A16C G22A U43A, the self-cleavage was determined as 0.11.

With A4U G22U U28C G29U, the self-cleavage is 0.09.

For the variant G5A A6C C15U C37A U38C G44A, the self-cleavage is 0.04.

For G5A C18U A26U G33C A39C, the self-cleavage stood at 0.03.

With G5C A25G G29C C46U, the self-cleavage turned out to be 0.04.

As for G5A G7A G40U, the self-cleavage is 0.71.

On to G5A U32G C46U, for which the self-cleavage was found to be 0.05.

For G5C A25U U34C U38G, the self-cleavage is 0.02.

Regarding G5C A11G C37A, the self-cleavage came to 0.02.

As for G5C A25G A26G C45G, the self-cleavage is 0.01.

Take G5A G44U C46U: the self-cleavage amounted to 0.03.

On to G5A C8U C18U C23U A25U G29A, for which the self-cleavage is 0.09.

Take G5C A14U G40A C46G: the self-cleavage was determined as 0.01.

Consider A4U G5C C18G, for which the self-cleavage amounted to 0.02.

Consider A4U G5C G7C A14G C15A C23A G44A, for which the self-cleavage is 0.04.

For A4U G22U G36U G40U, the self-cleavage amounted to 0.3.

G5A G17A G35C U38C: the self-cleavage came to 0.06.

Turning to G5A A24U G36A C45U, the self-cleavage is 0.08.

As to A4U G7U C15U C18U G35A, the self-cleavage came to 0.05.

Turning to G5A A6G A14U A16C C18G A25G G27C U32G, the self-cleavage was 0.08.

As to G5A C10U C46U, the self-cleavage is 0.14.

In the case of A4U G17U G21A, the self-cleavage was found to be 0.09.

Regarding G5A G22A U38G C45U, the self-cleavage is 0.02.
